In all, about 48,000 compounds went through this assay and about 120 (0.25%) were called active. Roughly 4% stayed inconclusive and do not appear here. Calls come from the whole dose curve; as a rule, active = well fitted activation curve with a large enough effect; inconclusive = small, poorly fitted or top-dose-only effect, or another doubt; inactive = no such curve, though single readings can be large or run the other way. The list shows a part of the results.
Assay: Primary qHTS for Identification of Small Molecule Activators of Huntingtin-Antisense Promoter Activity; note: nearly all actives have a fitted effect of over 55% in size
Conditions: HEK293 HTT-AS promoter firefly luciferase reporter, 24 h; series mostly up to 57.5 µM; activity change, positive = activation: at the top concentration
Procedure, shortened: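 HEK293 cells carrying firefly luciferase reporters were seeded at 2,500 per well in Opti-MEM and cultured for 24 h. They were then treated with compounds at up to 57.5 uM final for 24 h at 37 degrees C before Dual-Glo luminescence readout.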

SMILES	activity change, positive = activation
COc1ccc(N(CC(=O)Nc2ccc(C)c(C)c2)S(=O)(=O)c2ccc(C)cc2)cc1OC	inactive: -6.31%
Cc1ccc(C)c(N2C(=O)N(Cc3c(F)cccc3Cl)c3ccccc3S2(=O)=O)c1	inactive: -7.55%
COC(=O)c1cc(NC(=O)Nc2ccc3snnc3c2)cc(C(=O)OC)c1	inactive: -17.6%
CC[C@H](CC[C@@H](C)[C@H]1CC[C@H]2[C@@H]3CC=C4C[C@@H](O)CC[C@]4(C)[C@@H]3CC[C@]12C)C(C)C	inactive: -14.7%
Cc1ccccc1-c1noc(-c2ccc(N3CCN(c4ccccc4)CC3)c([N+](=O)[O-])c2)n1	inactive: -7.17%
CC(=O)OCc1cc(=O)n2nc(C3CCCCC3)sc2n1	inactive: 19.9%
Cc1ccc(-c2c(CN3CCN(c4cc(C)ccc4C)CC3)csc2C)cc1	inactive: -7.5%
Cc1c(C(=O)NC(C)c2ccccc2)sc2ncnc(N(C)C3CCCCC3)c12 (centres undefined)	inactive: -23.5%
CCCn1cc(S(=O)(=O)c2cccc(Cl)c2)c(=O)c2cc(F)c(N3CCOCC3)cc21	inactive: -24.2%
CCN(CC)C(=O)CSc1nnc2ccc3ccccc3n12	inactive: 8.88%
CCc1ccccc1NC(=O)CN1C(=O)CCn2nc(-c3cccn3C)cc21	inactive: -4.41%
CCOC(=O)C1CCN(c2nc3c(S(=O)(=O)c4ccc(Br)cc4)nnn3c3ccsc23)CC1	inactive: -15.3%
FC(F)(F)c1cccc(-n2cc(-c3ccccc3)c3c(N4CCCCC4)ncnc32)c1	inactive: 0.648%
COc1ccc(CCNC(=O)Cn2cc(C(=O)c3ccc(Cl)cc3)c(=O)c3ccc(C)nc32)cc1OC	inactive: -9.86%
COc1ccccc1CNC(=O)CN1C(=O)CCc2cc(S(=O)(=O)N3CCCCC3)ccc21	inactive: -2.9%
COc1ccc(C(=O)NCCn2cc(SCc3cccc(F)c3)c3ccccc32)cc1OC	inactive: -58.1%
CCCN(CCC)CCNC(=O)Cn1cnc2sc(C)c(S(=O)(=O)N3CCC(C)CC3)c2c1=O	inactive: 7.66%
CCc1ccc(NC(=O)CC(c2cc(OC)c(OC)c(OC)c2)N2Cc3ccccc3C2=O)cc1 (centres undefined)	inactive: -42.1%
COCCN1C(=O)c2oc3cc(C)cc(C)c3c(=O)c2C1c1cccc(O)c1 (centres undefined)	inactive: 1.15%
COc1ccc(CNC(=O)c2cc3c(-c4ccc(Cl)cc4)nn(C)c3s2)cc1	inactive: -28.2%

SMILES	activity change, positive = activation
COc1ccc(S(=O)(=O)N(CCc2ccccc2)CC(=O)NCc2ccccc2)cc1	inactive: 19.1% [at 11.5 µM, percent change from vehicle, -100% = no light]
CCOC(=O)c1cccc(NC(=O)Cn2nc3c(cc2=O)CCCC3)c1	inactive: -15.3%
Cc1ccc(N2CC(C(=O)NCCS(=O)(=O)N3CCN(c4ccccc4)CC3)CC2=O)cc1 (centres undefined)	inactive: -10.6%
Cn1c(=O)c(=O)n(C)c2cc(NS(=O)(=O)c3ccc(Br)cc3)c(Cl)cc21	inactive: -27.5%
CCc1ccc(-n2nc(CO)c(C(=O)NCc3ccccc3Cl)n2)cc1	inactive: -20%
COc1ccc(NC(=O)N2CCCn3nc(C)cc32)cc1OC	inactive: -10.6%
CCCCNC(=O)CSc1nc2cc3c(cc2c(=O)n1Cc1ccc(C(=O)NCCc2ccc(OC)c(OC)c2)cc1)OCO3	inactive: -1.97%
CCn1c(C(=O)NCc2ccccc2Cl)cc2sc(Cl)cc21	inactive: -19.7%
CC(Oc1ccccc1)C(=O)Nc1ccc(C(=O)OCc2cc(=O)n3nc(C4CC4)sc3n2)cc1 (centres undefined)	inactive: -31.5%
O=C(CCC(=O)N1Cc2ccccc2Oc2ncccc21)NCc1cccc(Cl)c1	inactive: -13%
Cc1cc2[nH]c(=O)c(=O)[nH]c2cc1S(=O)(=O)N1CCN(c2ccccc2)CC1	inactive: -5.73%
COc1ccc(Cc2nc3ccccc3n2Cc2ccccc2C)cc1	inactive: -36.3%
COc1ccc(-c2cc3ccc(O)c(CN4CCCC(C)C4)c3oc2=O)cc1OC (centres undefined)	inactive: -1.18%
O=C(NCc1cccc(Cl)c1)c1ccc(NC(=O)N2CCSc3ccccc32)cc1	inactive: -8.28%
COc1ccc(-c2cn3c(n2)sc2cc(C(=O)Nc4ccc(C)c(Cl)c4)ccc23)cc1	inactive: 23.7%
CCOC(=O)c1[nH]c2c(c1Cc1ccccc1C)C(=O)CC(c1ccccc1)C2 (centres undefined)	inactive: -8.69%
CCOc1ccc(-c2nnc(SCC(=O)Nc3ccc(C)cc3C)o2)cc1	inactive: -51%
CCc1ccc(NC(=O)c2cnn(-c3c(C)cccc3C)c2C2CCN(C(=O)OC(C)(C)C)CC2)cc1	inactive: -18.6%
Cc1c(C(=O)N2CCCCCC2)c(S(=O)(=O)Nc2cccc(C#N)c2)c(C)n1C	inactive: -2.96%
CC1(C)N=C(SCc2ccc(Cl)cc2)c2ccccc2N1	inactive: 12.4%

SMILES	activity change, positive = activation
O=C(NCCc1ccccc1)C(=O)NCC(c1cccs1)S(=O)(=O)c1cccs1 (centres undefined)	inactive: -31.9%
Cc1cc(=O)[nH]c2nnc(SCc3ccccc3F)n12	inactive: -10.4%
Cn1c(=O)cc(SCC(=O)NCc2ccc(F)cc2)c2cc(Cl)ccc21	inactive: -4.33%
Cc1ccc(S(=O)(=O)N2CCN(Cc3cc(=O)n4nc(-c5ccccc5Cl)sc4n3)CC2)cc1	inactive: 1.81%
CCOC(=O)c1c(C)[nH]c(C)c1S(=O)(=O)N1CCC(C(=O)Nc2ccccc2CC)CC1	inactive: -12.7%
COc1cccc(C2C(C(=O)Nc3ccccc3OC)=C(C)Nc3nc(-c4ccco4)nn32)c1 (centres undefined)	inactive: -15.3%
COc1ccc(-n2nc(C(=O)NCCc3ccc(OC)c(OC)c3)c3c4ccccc4n(C)c3c2=O)cc1	inactive: -9.71%
Cc1ccccc1-c1nc(CS(=O)(=O)CC(=O)NCCCc2ccccc2)c(C)o1	inactive: -18.9%
CCC(Sc1nnc2c3ccccc3n(CC)c2n1)C(=O)Nc1ccc(NC(C)=O)cc1 (centres undefined)	inactive: -8.43%
CCCOc1cccc(C2c3c(oc4ccc(F)cc4c3=O)C(=O)N2CCc2ccc(OC)cc2)c1 (centres undefined)	inactive: -6.44%
COc1ccc(-c2noc(CSc3nc4ccc(C)cc4[nH]3)n2)cc1	inactive: -35.1%
O=C(Cn1nc(Cc2cccnc2)c2ccccc2c1=O)Nc1ccc(F)c(Cl)c1	inactive: -39.2%
COc1cccc(CNC(=O)c2sc3ncccc3c2-n2c(C)ccc2C)c1OC	inactive: -34.6%
COc1ccc(C(=O)NCC(c2ccc(Cl)cc2)N2CCCCC2)cc1 (centres undefined)	inactive: -8.19%
COc1ccccc1CNC(=O)Cn1nc(C)n2cccc2c1=O	inactive: -2.16%
CCC(C(=O)Nc1cc(C(F)(F)F)ccc1Cl)n1nc(C)c2sc3ccccc3c2c1=O (centres undefined)	inactive: -8.92%
O=C(Cn1cnc2onc(-c3ccc(F)cc3)c2c1=O)N1CCN(c2ccc(F)cc2)CC1	inactive: -23.5%
Cc1ccc(Cc2c(C)nc3nc(SCC(=O)NCCC(C)C)nn3c2C)cc1	inactive: 8.62%
Cc1nn(C)c(C)c1S(=O)(=O)N(CC(=O)Nc1ccc(F)cc1F)c1ccc(C(C)C)cc1	inactive: -34.1%
